According to PubChem BioAssay AID493208 (National Center for Advancing Translational Sciences (NCATS), 2011):
About 340 (0.77%) of roughly 44,000 compounds were called active. Another 5% or so got no clear call; they are omitted. The call rests on the fitted dose curve; in most records, active means well fitted inhibition curve with a large enough effect; inconclusive means small, poorly fitted or top-dose-only effect; inactive means flat fitted curve, though single readings scatter. This is one part of the list.

Test: Acumen qHTS Assay for Inhibitors of the mTORC1 Signaling Pathway in MEF (Tsc2-/-, p53-/-) Cells: Sytravon; further: nearly all actives have a fitted effect of over 50% in size;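 on activity change, negative = inhibition: plate controls were DMSO for no effect and rapamycin for full effect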
Settings: phospho-rpS6 immunofluorescence/PI, 24 h; series mostly up to 38.3 µM; activity change, negative = inhibition: at the top concentration
Summary of the method: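 Immunofluorescence of rpS6 phosphorylation in Tsc2-/-, p53-/- MEFs after 24 h compound exposure, normalized to propidium iodide signal. Activity is expressed as % positive cells, thresholded with 7.5 nM rapamycin.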
Potency means the concentration at half of the fitted maximal effect.

SMILES | activity change, negative = inhibition | Potency
Cc1nn2c(-c3cccc(NC(=O)c4ccccc4)c3)nnc2c2ccccc12 | inactive: -2.6% | –
COc1ccc(-c2cc(C)no2)cc1S(=O)(=O)N1CCOc2ccccc21 | inactive: -6.7% | –
Cc1cccc(N2CCN(C(=O)CCc3nnc4n(CC(C)C)c(=O)c5ccccc5n34)CC2)c1C | inactive: 0.914% | –
O=C(Cc1ccccc1)N(Cc1cccnc1)c1nc2c(F)cc(F)cc2s1 | inactive: -3.05% | –
CC(C)c1ccc(OCC(=O)NC(Cc2c[nH]c3ccccc23)C(=O)O)cc1 (stereo not drawn) | inactive: -12.1% | –
CCOC(=O)c1c(C)oc2ccc(N(C(=O)Oc3ccccc3)S(=O)(=O)c3ccc(CC)cc3)cc12 | inactive: -3.84% | –
O=C(Nc1cc(Cl)cc(Cl)c1)c1ccc(F)c(S(=O)(=O)N2CCc3ccccc32)c1 | inactive: -8.8% | –
COc1ccc(CCNC(=O)c2ccc3c(c2)N(Cc2c(F)cccc2Cl)C(=O)CS3)cc1OC | inactive: 3.78% | –
Cc1cccc(OC(=O)CSc2nnc(CNC(=O)c3ccccc3)o2)c1C | inactive: 0% | –
O=C(Nc1ccc(F)cc1)c1oc2ccccc2c1NC(=O)C12CC3CC(CC(C3)C1)C2 | inactive: -2.83% | –
CCc1ccccc1NC(=O)CN(Cc1ccccc1)S(=O)(=O)c1ccc(Br)cc1 | inactive: 14% | –
COc1ccc(NC(=O)C(C)n2nc(-c3ccc(C)c(C)c3)ccc2=O)cc1OC (stereo not drawn) | inactive: -4.4% | –
CCc1nnc(SCc2cc(C)ccc2C)c2cc3sc(C)cc3n12 | inactive: -2.2% | –
COc1cccc(NC(=O)CSC2=Nc3ccccc3C3=NC(CC(=O)NC4CCCCC4)C(=O)N23)c1 (stereo not drawn) | inactive: -6.41% | –
CCOC(=O)c1c(C)[nH]c(C)c1S(=O)(=O)N1CCC(C(=O)N2CCN(c3ccccc3F)CC2)CC1 | inactive: 5.53% | –
Cc1ccc(-n2c(SCc3cccc(F)c3)nc3[nH]ncc3c2=O)cc1C | inactive: 1.22% | –
Cc1ccc2c(c1)-c1cc(C)nn1C(c1cc(Br)ccc1O)N2 (stereo not drawn) | inactive: -19.4% | –
COc1cc(OC)c(OC)cc1/C=C/c1nc2cc3ccccc3cc2c(=O)n1-c1ccc(F)cc1F | inactive: 10.5% | –
COc1ccc(C2CC(=O)c3cc(-c4nc(-c5ccc(Cl)cc5)c(C)s4)c(=O)[nH]c3C2)cc1 (stereo not drawn) | inactive: -13.4% | –
O=S(=O)(Nc1nc2n(n1)C(c1ccc(F)cc1)C=C(c1ccccc1)N2)c1ccccc1 (stereo not drawn) | inactive: -9.55% | –
Cc1ccc2ncc(C(=O)Nc3ccc(F)cc3F)c(=O)n2c1 | inactive: 2.48% | –
COC(=O)c1ccc2c(=O)n(CCCCCC(=O)NCc3ccc(Cl)cc3)c(=O)[nH]c2c1 | inactive: -10.2% | –
CCc1ccc(CNC(=O)c2ccc(NC(=O)N3CC(C)Sc4ccccc43)cc2)cc1 (stereo not drawn) | inactive: 1.06% | –
Cc1cc(C)c2c(=O)cc(C(=O)Nc3ccccc3C(F)(F)F)oc2c1 | inactive: 1.35% | –

SMILES | activity change, negative = inhibition | Potency
CC(=O)c1ccc(N2CCN(c3ccc(NC(=O)c4ccc(F)cc4)cc3C(=O)O)CC2)cc1 | inactive: -3.5% | –
Cc1cc(NC(=O)CCS(=O)(=O)c2cc3c4c(c2)CCN4C(=O)CC3)ccc1Br | inactive: -0.48% | –
CC(C)(C)c1ccc(C(=O)NCC(c2cccs2)S(=O)(=O)c2ccccc2)cc1 (stereo not drawn) | inactive: -9.6% | –
CC(C)OCCCNC(=O)c1ccc2c(c1)NC(=O)c1ccccc1S2 | inactive: -0.0176% | –
COC(=O)c1ccccc1NC(=O)CSc1nc2ccccc2nc1Cc1ccccc1OC | inactive: -16.5% | –
CCOC(=O)c1c(-c2ccc(Br)cc2)csc1NC(=O)c1ccc(F)cc1 | inactive: 5.28% | –
O=C(CCS(=O)(=O)c1cc(Br)cc2c1N(C(=O)C1CC1)CC2)NCc1ccc(Cl)cc1 | inactive: -4.93% | –
CN(C(=O)c1cc2nc(-c3ccco3)cc(C(F)(F)F)n2n1)c1ccc(OC(F)(F)Cl)cc1 | inactive: -4.42% | –
O=C(Nc1cc(-c2nc3ccccc3o2)ccc1Cl)c1ccc(N2CCCCC2)c([N+](=O)[O-])c1 | inactive: 3.18% | –
COc1ccc(C2c3c(n(C)c4ccccc34)C(=O)N2CC(=O)Nc2ccc(C)c(Cl)c2)cc1 (stereo not drawn) | inactive: -11% | –
Cc1ccc(NC(=O)Cn2cc(S(=O)(=O)c3ccc(C)cc3)c(=O)c3cc4c(cc32)OCO4)cc1 | inactive: -0.86% | –
Cc1ccc(-c2nc(SCCOc3ccccc3C)n3[nH]c(=O)cc3n2)cc1 | inactive: 10.3% | –
CCOC(=O)C1CCN(c2nc3c(S(=O)(=O)c4ccccc4)nnn3c3ccsc23)CC1 | inactive: -0.781% | –
CCc1ccccc1N(CC)C(=O)c1c(C)oc2ncnc(N3CCOCC3)c12 | inactive: 5.92% | –
Cc1ccccc1C(=O)Nc1ccc(OCc2cc(=O)n3cccc(C)c3n2)cc1 | inactive: 5.25% | –
O=c1c2oc3ccccc3c2n(Cc2ccc(Cl)cc2)c(=O)n1Cc1ccco1 | inactive: -6.73% | –
O=C1COc2cc(S(=O)(=O)NCc3ccco3)c(Cl)cc2N1 | inactive: -0.25% | –
CC1=C(c2ccc(C)c(C)c2)S(=O)(=O)N=C1N1CCC(C(=O)N2CCC(C(N)=O)CC2)CC1 | inactive: 5.65% | –
Cc1cccc(CN2CCC(CNC(=O)c3c(C)oc4ncnc(N5CCCCC5)c34)CC2)c1 | inactive: -8.49% | –
CCN(C(=O)C1CCC(CNS(=O)(=O)c2cccc3nsnc23)CC1)c1ccc(C)c(C)c1 (stereo not drawn) | inactive: -7.43% | –
CC(Sc1nc(=O)cc(N)n1CCc1ccccc1)C(=O)Nc1ccc(Cl)cc1 (stereo not drawn) | inactive: -3.37% | –
CC(=O)N1CCOc2cc(S(=O)(=O)NC(C)c3ccccc3)c(Cl)cc21 (stereo not drawn) | inactive: -0.6% | –
Cc1cccc(C(=O)Nc2sc3c(c2C(=O)N2CCCCC2)CCC(C)C3)c1 (stereo not drawn) | inactive: 11.2% | –
O=C(CCc1cn(Cc2ccc(F)cc2)c2ccccc12)NCCc1ccc(Cl)cc1 | inactive: -8.59% | –

SMILES | activity change, negative = inhibition | Potency
CCN(c1ccccc1)c1nnc(NC(=O)Nc2ccc(Br)cc2)s1 | inactive: 4.86% | –
Cn1cnc(S(=O)(=O)N2CCC(C(=O)NCc3ccccc3Cl)CC2)c1 | inactive: 5.91% | –
COc1cccc(NC(=O)CSc2nc3ccc(NC(=O)c4cccs4)cc3s2)c1 | inactive: -2.25% | –
CCOC(=O)c1c(NC(=O)/C=C/c2ccc(C(C)C)cc2)sc2c1CCC2 | inactive: 16% | –
Cc1ccc(NC(=O)Nc2nnc(N3CCCC3)s2)cc1 | inactive: -6.32% | –
CCc1ccc(OC(C)c2nc(-c3ccc(-n4cccc4)cc3)no2)cc1 (stereo not drawn) | inactive: -12.4% | –
CNS(=O)(=O)c1cn(CC(=O)N2CCN(c3ccccc3F)CC2)cc1S(=O)(=O)NC | inactive: -0.65% | –
CCOc1ccc(CCNc2ncnc3onc(-c4ccc(Cl)cc4)c23)cc1OCC | inactive: -15.8% | –
COCc1nc2cccnc2n1C1CCN(S(=O)(=O)N(C)C)CC1 | inactive: 5.75% | –
COc1ccc(NC(=O)C(c2ccc(C)cc2)N(C)C(=O)/C=C\c2ccc3c(c2)OCO3)cc1 (stereo not drawn) | inactive: 1.79% | –
O=S(=O)(NCc1csc(-c2ccccc2)n1)c1cccc(F)c1 | inactive: -0.301% | –
CCOC(=O)c1ccc(NC(=O)CCc2c(C)nc3c(c(C)nn3-c3ccccc3)c2C)cc1 | inactive: -0.88% | –
O=C(Cn1c(SCc2cccc(F)c2)nc2cccnc21)Nc1ccc(F)c(Cl)c1 | inactive: -3.7% | –
CC(=O)c1ccc(NC(=O)CCc2c(C)nc3c(c(C)nn3-c3ccc(C)cc3)c2C)cc1 | inactive: -3.08% | –
COc1ccccc1NC(c1ccc(Cl)cc1)c1nnc(-c2cccc(F)c2)o1 (stereo not drawn) | inactive: 2.04% | –
CC(C)(C)c1ccc(Cn2c(Cc3ccccc3)nc3ccccc32)cc1 | inactive: -8.86% | –
Cc1nn2c(=O)cc(CN(C)c3ccccc3)nc2s1 | inactive: -0.393% | –
CCOC(=O)c1ccccc1NC(=O)CSc1ncc(CO)n1Cc1ccc(C)cc1 | inactive: -14.3% | –
CCOc1ccc(-c2nonc2NC(=O)c2oc3ccc(F)cc3c2C)cc1 | inactive: -4.01% | –
O=C(COc1ccccc1Cl)Nc1cc(-c2ccccc2F)nn1-c1ccccc1 | inactive: 0% | –
Cc1cc(C)cc(NC(=O)CN(c2cc(C(F)(F)F)ccc2Cl)S(=O)(=O)c2ccccc2)c1 | inactive: 5.46% | –
COc1ccc(C2c3c(oc4ccccc4c3=O)C(=O)N2Cc2ccc3c(c2)OCO3)cc1 (stereo not drawn) | inactive: -0.491% | –
COC(=O)c1ccccc1NC(=O)C1=CC(c2ccc(C)cc2)=NS(=O)(=O)N1C | inactive: 4.73% | –
O=C(CCS(=O)(=O)c1nc(-c2cccs2)cc(C(F)(F)F)n1)Nc1ccc(OC(F)(F)F)cc1 | inactive: -17.1% | –

SMILES | activity change, negative = inhibition | Potency
COc1ccc(OC)c(NC(=O)c2cc3c(n(-c4ccc(Cl)cc4)c2=O)CC(C)(C)CC3=O)c1 | inactive: 0.202% | –
COc1cccc(-c2nn(C)c3sc(C(=O)NCc4cc(OC)ccc4OC)cc23)c1 | inactive: -0.768% | –
O=C(CN1CCN(Cc2ccc(F)cc2)C1=O)NCc1ccccc1Cl | inactive: -13.8% | –
Cc1cc(C)c(S(=O)(=O)Nc2ccc(-c3ccc(N4CCC(C)CC4)nn3)cc2)cc1C | inactive: -8.14% | –
COc1ccc(OCC(=O)Nc2nnc(S(=O)(=O)N3CCc4ccccc43)s2)cc1 | inactive: -3.55% | –
Cc1cccc(C)c1Nc1c(-c2ccccc2F)nc2cccc(C)n12 | inactive: -8.6% | –
CCCCN(CC)CCNC(=O)c1c(C)oc2ncnc(N3CCOCC3)c12 | inactive: -1.47% | –
Cc1ccccc1C(=O)Nc1cc2c(cc1N1CCOCC1)n(C)c(=O)n2C | inactive: -8.85% | –
Cc1ccc2oc3c(c(=O)c2c1)C(c1ccc(O)cc1)N(Cc1ccc2c(c1)OCO2)C3=O (stereo not drawn) | inactive: -4.35% | –
CCOc1ccc(C(=O)c2cn(CC(=O)Nc3ccc(OC)cc3)c3cc4c(cc3c2=O)OCCO4)cc1 | inactive: 3.55% | –
COc1ccc2[nH]c(=O)c(CN(C(=O)c3cccc(Cl)c3)c3ccccc3C)cc2c1 | inactive: 1.3% | –
Cc1cc2nnc(SCc3ccc(F)cc3)n2c2ccccc12 | inactive: 1.1% | –
CC(C)CCn1c(=O)c2cccnc2n(CC(=O)Nc2ccc(F)cc2)c1=O | inactive: -11.5% | –
COc1cccc(-c2cc(C(=O)Nc3c(C)nn(Cc4ccccc4Cl)c3C)no2)c1 | inactive: -6.19% | –
COc1ccc2occ(CC(=O)Nc3ccc(S(=O)(=O)Nc4nccc(C)n4)cc3)c2c1 | inactive: -1.94% | –
Cc1ccc(CNC(=O)c2sc3nc[nH]c(=O)c3c2C)cc1 | inactive: -10% | –
CC1CN(c2ccc(Cl)cc2)c2nc3c(c(=O)n(CC(=O)O)c(=O)n3C)n2C1 (stereo not drawn) | inactive: -3.64% | –
C#CCn1c(C2CC(=O)N(c3ccc(OC)cc3)C2)nc2ccccc21 (stereo not drawn) | inactive: -0.0406% | –
CN1CCN(C2(CNC(=O)c3ccc(C(C)(C)C)cc3)CCCCC2)CC1 | – | active: 16.5 µM
COc1ccc(-n2c3c(c(=O)[nH]c2=O)C(NC(=O)c2ccccc2Cl)(C(F)(F)F)C(=O)N3)cc1 (stereo not drawn) | inactive: 12.6% | –
COc1cccc(C(=O)NCc2ccc3c(c2)CCN3C(=O)c2ccncc2)c1 | inactive: -17.6% | –
